Test results taken from the supplement of paper PMC11417369.
Some of the results follow.

Tested on: PfSIP2 AP2 domain 1 (GST-tagged)
Experiment: gcPBM binding intensity (ln(normalized median fluorescence intensity)); higher = stronger DNA binding
In short: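 Binding intensity values are the highest Masliner-normalised natural-log median intensity among replicate spots of either probe orientation. The binding step lasted 1 h in 1× PBS with 1% milk, 0.2 mg/ml BSA, 0.5% salmon testes DNA and 0.03% Triton X-100, using GST-tagged P. falciparum DNA-binding domains expressed in E. coli on an Agilent 4 × 180k array of primer-extended double-stranded 36-bp intergenic genomic probes plus negative controls. Alexa488 anti-GST antibody and a 488 nm scan detected bound protein.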

Point of comparison: ATTTTTCAAACTTTAGTGCAATGAAAGAAAGAAAAA, “gcPBM binding intensity (ln)” value 7.75. Against it:
- AAATAAAAGGTTGAGAGTACATTTTTGTGTATGTAT [XGTACX_site5547] — lower, 7.07
- AGCTCTCAAAATTATTCACACGTGTCCTGTTATATA [CACACA_site5415] — lower, 7.19
- ATATTTCATTAATGAACACACAAAGAGGTATATAAA [CACACA_site1519] — lower, 7.18
- ATATTTAAAAATATAGTGCAATTATTCTAATGTGTT — lower, 7.6
- TATATTTACATTGTAACACACATGAAATATATATAT [CACACA_site61] — higher, 8.17
- TTTTTTATTGTGATACGTATATTATTTTTTGATAAA [CACACA_negctrl_site1] — lower, 6.99
- TGTTGTAAATATGTTTGTACATAAATATATTATTTA [XGTACX_site5442] — lower, 7.11
- TTAATTAATAGACACACACACATATAAATATAGATT [CACACA_site7143] — lower, 7.06
- AAAAAAAAATAATATTGTACACACATAAATTCTTTG [XGTACX_site4315] — lower, 6.98
- GTGTATTTTCTGCGCACACACATGCAAAAAGAAATA [CACACA_site1148] — higher, 8.26
- GTTTTATTAAAAATGTGTACTTAATTATGAAAAAAA [XGTACX_site4689] — lower, 7.11
- AAGAAAAAATATAATAATAATAAAATATATATAATA [TGCATGCA_negctrl_site475] — lower, 6.51
- TTTGTTTTTCATAGTGCACACATAACCAAAAATAGT [CACACA_site9030] — higher, 10.5
- TATTGTTTTGATTGATGTACATGTTTAAAATATATA [XGTACX_site8430] — lower, 7.24
- TAATCTATTTATATGTGTACCTATTTAGAAATGACA [XGTACX_site5709] — lower, 7.26
- AAAGTAAATTTAAGCACACACAACGAACTTTTATAC [CACACA_site7008] — lower, 7.42
- GCGGGTTTATCTTTCGCACACCTTACATTTTAGAAT [CACACA_site2015] — lower, 7.07
- AGTTTTATGTAGTGTTGTACTTTATACAAATATATT [XGTACX_site614] — lower, 7.05
- ATATCACATTCCACGGTACACACTAAAAGAAAAATC [CACACA_site3611] — lower, 7.35
- ATAAATCAAAGGCACACACACAAAAAAAAAAAAAAA [CACACA_site160] — lower, 7.06
- TGTTTTTTATATTACTGTACATGTTTTGGAATAATA [XGTACX_site4716] — lower, 7.12
- TATTCCTTCTACAATTAAATAATTATAATAAATATA [GTGCAC_negctrl_site26] — lower, 7.32
- GTATCATTAAATTATTGTACATATATATATATATAT [XGTACX_site8809] — higher, 9.44
- TATTTTTGTATATATTTATTCTTATTTTACAGGAAA [TGCATGCA_negctrl_site472] — lower, 6.92
- AACAAAAATAGAAACACACATACATTGGTTTTCTTT [CACACA_site2534] — lower, 6.89
- ACATTTAAGTTTAGCTGTACATATTCATCATAATTA [XGTACX_site37] — lower, 7.27
- AAAAAAAAAAAAAAAAAAAAAAAAAAATATATATAT [CACACA_negctrl_site271] — higher, 8.99
- TGCTACTTATAAATAGAACACACATAAGTGTATTTG [CACACA_site9253] — lower, 6.81
- AAGAAAAAAAAAAAAAAAAAAAAAAAAAAGGAAAAA [GTGCAC_negctrl_site174] — lower, 6.86
- ATAAAGCCATACAATACACACATTTGACATGTCCGT [CACACA_site7523] — lower, 6.98
- ATACTTCAATCTATTTGTACATATTTTTTAAAACCA [XGTACX_site2328] — lower, 7.21
- GAAATTTTTAAATACAGTACACACATGGGTTTAAAT [XGTACX_site6124] — lower, 6.98
- AATAATAAAAAATATACACACATATATAAATAAATA [CACACA_site6164] — lower, 6.84
- TAAGAAAAAAAATAATGTACATATGTATTTGAGAAA [XGTACX_site3569] — lower, 6.99
- TATATATATATATATTGTACTAATTGTGCAAATGAG [XGTACX_site682] — higher, 9.7
- TATATTAATAGACACACACACATATTTATATTTATA [CACACA_site6859] — lower, 7.14
- TATATTTAGTAAAAAGGTACCATTCTTATTTATATT [CACACA_negctrl_site1165] — lower, 6.8
- TACTGTGATAGCACCACACACGCAAAAGTGAGTATA [CACACA_site1109] — higher, 7.95
- TTTCAGCCAAACGATAAACTACGACACTTGAACGAA [CACACA_negctrl_site1747] — lower, 6.77
- ATATATTTTTTTTCTTCACACACATGAATTATATAT [CACACA_site9053] — lower, 7.45
- ATATATATATATATATGTACATATTATATATGAACG [XGTACX_site1585] — higher, 9.83
- AATAATAGAAAAAGGTGTACTTATAAACATATACAC [XGTACX_site6921] — lower, 6.95
- GTAATTATTATTAATAGTACACACTATGGCATTTCA [XGTACX_site5192] — lower, 6.91
- ATTTTTTTTTTTATGTGTACATATATTTTTTTAATT [XGTACX_site7921] — lower, 7.02
- AAGAAAAAATAAACATGTACATAAATATATATATAT [XGTACX_site304] — higher, 9.59
- ATTTAATTTATAAAAACACACACAGGTAAAAAGGTG [CACACA_site8306] — higher, 7.83
- TAAGGCCCTTTTCATCGTACAGTAAAATATAAATAA [XGTACX_site1278] — lower, 6.94
- CATACTGTGATAGCACCACACACGCAAAAGAGGGTA [CACACA_site8285] — higher, 8.08
- CAAATACATGTGTAAAGTACATATTAATAAGTCTTT [XGTACX_site6342] — lower, 6.91
- GAAAATTCTTAAGGCACACACATATATAATATATAC [CACACA_site569] — lower, 6.95
- AATTTAACCCATTTTATAATTATTACCACTATATAT [TGCATGCA_negctrl_site452] — lower, 7.1
- TCATTATATACAATATGTACATATATGTAATAAACA [XGTACX_site4611] — lower, 7.18
- AGAAAGAAAGAATACACACACACATATATATATATC [CACACA_site3744] — lower, 7.18
- AAAGAATTCATTATTTGTACTTAAATAAATAAATAA [XGTACX_site5932] — lower, 6.86
- AAAGGATATGCTTCATATATATATTGTTATATATGT [CACACA_negctrl_site1672] — lower, 6.88
- AGCACACGCAGACACACACACACACGCACACGCACA [CACACA_site6306] — higher, 8.43
- ATAACACAAAAAGGGGGTACAATAAAAAAAAAAAAA [XGTACX_site1652] — higher, 8.46
- AATACCTATAATACAACACACAAGTAATATAAACCT [CACACA_site7661] — lower, 7.03
- TATTTATATAGGTATACACACATACAAATATGTAAA [CACACA_site7705] — lower, 6.89
- TAAAATTTTTTATTCACACAAATATAGTTATATATA [CACACA_site5348] — lower, 6.86
- AAATTAATATAAATATGTACATAAATAATAAAATAT [XGTACX_site6131] — lower, 7.36
- GGAGGTTGTTATAAAAGTACAAAAAGTTGCAATTTT [XGTACX_site7351] — lower, 7.11
- GTTTTCCTTCCCTTTCCCCCTCAAAAAAAGGGAACA [TGCATGCA_negctrl_site436] — higher, 8.88
- AAGGAATAAAGAAGTTGTACATAATTTGTATCATCC [XGTACX_site3891] — lower, 7.16
- AAAAAAAAAAAAACTTGTACATGTGATATTATCTAT [XGTACX_site6169] — lower, 6.86
- ATTTAATACATACATTCACACACACTAATTGTATAT [CACACA_site9361] — lower, 7.01
- TTAAATGTTCTATATACATGCAATGATATGTTTCTG [TGCATGCA_site317] — lower, 6.78
- TCAAAGTAGGCTTATATGCACACTTTGAAATATTAT [CACACA_site1920] — lower, 7.31
- TTTAAAATAAATATTACACACAAAATATTAAAAAGC [CACACA_site2129] — lower, 7.35
- ATATATACATATGGGTGTACATATGCACATATATAT [XGTACX_site8437] — lower, 7.5
- ACAAAAAAAAACGTGGTGCATTAATAATATTGTATA [GTGCAC_site9469] — higher, 10.3
- TAGTTAATATGAAAAAGTACACGTTTCAGTGAAAGT [XGTACX_site7402] — lower, 6.97
- TGCTCTAATTTATATACACACAAATATGTACACATA [CACACA_site7845] — lower, 7.32
- TTTCATAAATAATAAAATAAAATATGAAGCAAAAGG [CACACA_negctrl_site1767] — lower, 7.29
- TAATTTTTTTAAGAGAGTACATGACTCAACAGTTTA [XGTACX_site3103] — lower, 6.69
- TTATATCCAACTTGAAAAAAGGTATATGTTTATATA [CACACA_negctrl_site1746] — lower, 6.62
- TTTTTTTTTTTTTGGAGTACATGTTTATAACATAAT [XGTACX_site1799] — lower, 7.02
- GATAATACATAAATTTATAAGTGGAAGAATAAATAA [CACACA_negctrl_site698] — lower, 7.06
- GAAATATTACAAAGTACATGCAACGAAAATTTCAGT [TGCATGCA_site608] — lower, 6.96
- ACAAACAAATAAATATGTACGAATAAATAAAATTTT [XGTACX_site4664] — lower, 6.94
- TTTTTTTTCAAAAATACAAAAAAAAAAGAAAAAAAC [CACACA_negctrl_site625] — lower, 7.19
- CTTTTAGAATAATCAGTGCAAAAAAAAAAAAAAAAA — higher, 8.42
- TTATTCTAAAAATATACACACAACAACAAACAAACA [CACACA_site1543] — lower, 7.42
- ATGTGTTTCTTCAATTGTACTAAAAGGTATATATTG [XGTACX_site4608] — lower, 7.23
- TAGTAACTTGTATTCACACAAATTATATTATATTAC [CACACA_site5041] — lower, 7.02
- TATATAATATATAAATGTACTTTTGTCTTATATGAA [XGTACX_site7211] — lower, 7.07
- ATTATTTAAATTTAACGTACGGAATAAGACATAGAT [XGTACX_site8622] — lower, 7.6
